Several values for one entry are separate records, joined by “and”; a condition that tells them apart may be missing. Equal entries are not always repeated. The list shows a part of the results. The main result of the screen is listed elsewhere. These columns were measured beside it and carry no call.
Experiments:
Assay in all cases: Primary Screen for Target Class Profiling of Small Molecule Inhibitors of Methyltransferases
[1] = target: Glycine N-methyltransferase (Homo sapiens) (UniProt Q14749); settings: purified enzyme, MTase-Glo SAH luminescence; measured here: GNMT inhibition; at 40 µM; stronger effect = lower value
Outline: (§1)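 Each enzyme was assayed with SAM and its substrate. SAH formation detected by MTase-Glo luminescence; single-point 40 uM screen[…].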

[2] = target: Guanidinoacetate N-methyltransferase (Homo sapiens) (UniProt Q14353); settings: purified enzyme, MTase-Glo SAH luminescence; measured here: GAMT inhibition; at 40 µM; stronger effect = lower value
Outline: as §1

[3] = target: Histamine N-methyltransferase (Homo sapiens) (UniProt P50135); settings: purified enzyme, MTase-Glo SAH luminescence; measured here: HNMT inhibition; at 40 µM; stronger effect = lower value
Outline: as §1

[4] = target: Nicotinamide N-methyltransferase (Homo sapiens) (UniProt P40261); settings: purified enzyme, MTase-Glo SAH luminescence; measured here: NNMT inhibition; at 40 µM; stronger effect = lower value
Outline: as §1

[5] = target: Phenylethanolamine N-methyltransferase (Homo sapiens) (UniProt P11086); settings: purified enzyme, MTase-Glo SAH luminescence; measured here: PNMT inhibition; at 40 µM; stronger effect = lower value
Outline: as §1
On the % scale 0 is the no-effect control and ±100 the full control effect.

Compound	activity change, negative = inhibition [1]	activity change, negative = inhibition [2]	activity change, negative = inhibition [3]	activity change, negative = inhibition [4]	activity change, negative = inhibition [5]
NC(=O)C1=CC2C3C=CC2C(OC3=O)O1 (stereo not drawn)	-3.87%	0.636%	7.99%	-12.6%	-6.15%
CCOC(=O)c1cc2n(n1)CC(C)(C(=O)NCc1ccccc1OC)N(Cc1ccc(SC)cc1)C2=O (stereo not drawn)	5.4%	0.848%	10.2%	6.56%	5.24%
CNC(=O)c1ccc2c(c1)CCO[C@H]2CCN1CCN(c2ccc(OC)cc2)CC1	-4.14%	-1.52%	6.29%	-18.8%	0.011%
COc1ccc(C(=O)N2CCN(CCCn3nc4n(c3=O)CCCC4)CC2)cc1	-3.89%	-7.32%	-0.605%	-12.8%	-8.17%
Cc1cn([C@H]2C=C[C@@H](CO)O2)c(=O)[nH]c1=O	3.93%	15.6% and -3.85%	13.1%	-8.32% and -18.6%	1% and 1.88%
COc1cc2nc(=NC(=O)c3cccnc3)n3c(c2cc1OC)NCC3	-4.95%	-8.37%	6.57%	5.87%	-1.86%
C=Cc1ccc(Cn2nc3n(CCC)c(=O)c4ccc(C(=O)NC(C)CC)cc4n3c2=O)cc1 (stereo not drawn)	1.4%	0%	4.6%	-2.34%	4.52%
CCn1cc(-c2ccc(Cl)cc2)cc1C(=O)N1CCN(c2ccccn2)CC1	-7.75%	-5.73%	-9.5%	-11.4%	-6.17%
c1ccc(C2=NOC3(CCN(C4CCCCC4)CC3)C2)cc1	-2.42%	-6.8%	-17.9%	-5.95%	-0.299%
O=C1CCN(C(=O)CCc2ccccc2)CCCC(CO)CCN1 (stereo not drawn)	0.319%	-0.681%	1.48%	-5.21%	-4.36%
Cn1cc(-c2cnc(Nc3cccnc3)c3c2CCO3)cn1	-14.2%	-12.8%	-17.2%	-8.39%	-4.49%
O=c1c(NS(=O)(=O)Cc2ccccc2)ccc2n1C[C@H]1C[C@@H]2CN(S(=O)(=O)c2ccccc2)C1	-3.02%	-0.128%	-1.31%	-3.35%	0.772%
CNC(=O)c1cc(C2CC2)nc2onc(C3CCCN3C(=O)Cc3ccccn3)c12 (stereo not drawn)	0.536%	0.188%	1.06%	-3.98%	-2.02%
C[C@]12CC[C@@H]3c4ccc(O[C@@H]5O[C@H](C(=O)O)[C@@H](O)[C@H](O)[C@H]5O)cc4CC[C@H]3[C@@H]1CCC2=O	-2.22%	-4.56%	7.03%	-12.1%	1.72%
Nc1ncnc2c1nc(Br)n2C1OC2COP(=O)(O)O[C@@H]2C1O (stereo partly drawn)	7.18%	11.5%	7.3%	-2.96%	5.66%
COc1cccc(C(=O)N(C)C2CCc3ccccc32)c1 (stereo not drawn)	-4.4%	-4.01%	-2%	-16.3%	-14.6%
OCc1ccccc1O[C@@H]1O[C@H](CO)[C@@H](O)[C@H](O)[C@H]1O	0.371%	-3.35%	7.09%	-12.8%	-0.237%
Cc1nc([C@@H]2CN(C(=O)c3sccc3C)C[C@H]2C(N)=O)n[nH]1	-0.784%	-0.611%	1.7%	-3.61%	-5.37%
Cc1noc(C)c1-c1cc2c(cc(C)n2C)c(NCc2ccncc2)n1	-27.2%	-17.3%	-16.6%	-21.1%	-44.3%
C[n+]1cc(NC(=O)c2cccc(C(=O)Nc3cc4ccccc4[n+](C)c3)n2)cc2ccccc21	–	7.39%	–	-8.35%	6.04%
COc1ccc(N(C(=O)c2ccccc2OC)S(=O)(=O)c2ccc3c(c2)n(C)c(=O)n3C)cc1	-0.188%	1.19%	5.75%	-2.7%	0.947%
COc1ccc(C)cc1NC(=O)CCC[C@@H]1[C@H]2CCCN3CCC[C@@H](CN1C)[C@@H]23	-4.4%	-14.5%	-7.11%	-18.2%	-8.58%
CCc1ccc(N2C(=O)c3cc4occc4n3CC2(C)C(=O)NC2CCCCCC2)cc1 (stereo not drawn)	-3.17%	4.23%	-0.389%	-1.33%	-2.53%
CCCn1c(=O)c2ccc(C(=O)NCC(C)C)cc2n2c(=O)n(CC(=O)Nc3ccc(C)c(F)c3)nc12	1.41%	0%	-1.55%	-1.7%	3.03%
CCN(C(=O)Cn1c(=O)oc2cc(S(=O)(=O)N3CC(C)CC(C)C3)ccc21)c1ccccc1 (stereo not drawn)	5.58%	0%	2.73%	-3.25%	-4.45%
CC1CCCCN1CCCNC(=O)c1cc2c(s1)CN(C1CCCC1)C2 (stereo not drawn)	-10.5%	-16.6%	-51.1%	-14.7%	-5.93%
O=C(c1ccc(C#Cc2cccc(F)c2)cn1)N1CC2CC2C1 (stereo not drawn)	-2%	-13.3%	10.8%	-10.2%	-0.72%
CN1C(CCl)Nc2cc(Cl)c(S(N)(=O)=O)cc2S1(=O)=O (stereo not drawn)	5.32%	8.45%	12.6%	-8.27%	6.42%
COc1ccc(NC(=O)CSc2nnc3n(CC(C)C)c(=O)c4cc(F)ccc4n23)cc1	1.55%	0%	10.7%	-5.87%	4.5%
CC[C@H](C)[C@H](N)C(=O)N1CCC(Cn2cc(C3CCCC3)nn2)CC1	-1.58%	0.297%	-0.433%	-8.93%	-3.56%

From PubChem BioAssay AID1745853 (National Center for Advancing Translational Sciences (NCATS), 2022)
